pIC50: −log10 of the molar value. Where a name gives a salt, the structure may show the parent alone.
Assays:
N-cNOS (Type 1) [1] = target: T1, N-cNOS (Type 1) (Rattus norvegicus, UniProt P29476); details: for Ratio of IC50 values E-cNOS/N-cNOS / Ratio of IC50 values iNOS/N-cNOS: index of selectivity
N-cNOS (Type 1) [2] = target: T1, N-cNOS (Type 1); test: biochemical
[3] = conclusion from Tables 49, 50 and 51

| SMILES | Ratio of IC50 values E-cNOS/N-cNOS (N-cNOS (Type 1) [1]) | Ratio of IC50 values iNOS/N-cNOS (N-cNOS (Type 1) [1]) | pIC50 (N-cNOS (Type 1) [2]) | N-cNOS inhibitory potency compared with the existing NOS inhibitors (L-MIN) (N-cNOS (Type 1) [1]; [3]) | selectivity for N-cNOS compared to E-cNOS, compared with the existing NOS inhibitors (L-EIN) (N-cNOS (Type 1) [1]; [3]) |
| --- | --- | --- | --- | --- | --- |
| CSC(=N)Nc1cccc(C(C)(C)N)c1.Cl.Cl [Example 5, N-(1-methyl-1-(3-(S-methylisothioureido)phenyl)ethyl)amine dihydrochloride] | 18.3 | 19.2 | 7.63 | – | – |
| CC(C)(N)c1cccc(NC(N)=N[N+](=O)[O-])c1.Cl [Example 7, N-(1-methyl-1-(3-(N′-nitroguanidino)phenyl)ethyl)amine hydrochloride] | 5.6 | 279.4 | 8.12 | – | – |
| CSC(=N)Nc1cccc(C(C)N)c1.Cl.Cl (stereo not drawn) [Example 12, N-(1-(3-(S-methylisothioureido)phenyl)ethyl)amine dihydrochloride] | 37.9 | 16.9 | 7.85 | – | – |
| CC(N)c1cccc(NC(N)=N[N+](=O)[O-])c1.Cl (stereo not drawn) [Example 14, N-(1-(3-(N′-nitroguanidino)phenyl)ethyl)amine hydrochloride] | – | 623.9 | 8.23 | – | – |
| CCC(N)c1cccc(NC(=N)SC)c1.Cl.Cl (stereo not drawn) [Example 19, N-(1-(3-(S-methylisothioureido)phenyl)propyl)amine dihydrochloride] | – | 27.2 | 7.05 | – | – |
| CCC(N)c1cccc(NC(N)=N[N+](=O)[O-])c1.Cl (stereo not drawn) [Example 21, N-(1-(3-(N′-nitroguanidino)phenyl)propyl)amine hydrochloride] | – | 441.7 | 8.23 | – | – |
| CSC(=N)Nc1cccc(CN)c1.Cl.Cl [Example 26, N-(3-(S-methylisothioureido)phenylmethyl)amine dihydrochloride] | 20.6 | 64.4 | 7.68 | – | – |
| CCSC(=N)Nc1cccc(CN)c1.Cl.Cl [Example 28, N-(3-(S-ethylisothioureido)phenylmethyl)amine dihydrochloride] | – | 5.9 | 8.26 | more potent in inhibiting N-cNOS than L-MIN | – |
| N=C(Nc1cccc(CN)c1)SCCF [Example 30, N-(3-(S-(2-fluoroethyl)isothioureido)phenylmethyl)amine dihydrochloride] | – | – | 6.79 | – | – |
| N=C(Nc1cccc(CN)c1)N[N+](=O)[O-] [Example 34, N-(3-(N′-nitroguanidino)phenylmethyl)amine] | – | 24.1 | 6.55 | – | – |
| CN(C)Cc1cccc(NC(N)=N[N+](=O)[O-])c1 [Example 39, N-(3-(N′-nitroguanidino)phenylmethyl)dimethylamine acetate] | – | – | 6.93 | – | – |
| CSC(=N)Nc1cccc(CN(C)C)c1 [Example 41, N-(3-(S-methylisothioureido)phenylmethyl)dimethylamine mononitrate monohydrochloride] | – | – | 6.92 | – | – |
| CCSC(=N)Nc1cccc(CNC)c1.Cl.Cl [Example 47, N-(3-(S-ethylisothioureido)phenylmethyl)methylamine dihydrochloride] | 8.3 | – | 8.06 | – | – |
| CSC(=N)Nc1ccc(CCN)cc1.Cl.Cl [Example 52, N-(4-(S-methylisothioureido)phenylethyl)amine dihydrochloride] | 13.7 | 78.4 | 7.45 | – | – |
| N=C(Nc1ccc(CCN)cc1)N[N+](=O)[O-] [Example 54, N-(4-(N′-nitroguanidino)phenylethyl)amine] | – | 75.0 | 7.17 | – | – |
| CSC(=N)Nc1cccc(CCN)c1.Cl.Cl [Example 60, N-(3-(S-methylisothioureido)phenylethyl)amine dihydrochloride] | – | 39.5 | 6.77 | – | – |
| CCSC(=N)Nc1cccc(C(C)(C)N)c1.Cl.Cl [Example 96, N-(1-methyl-1-(3-(S-ethylisothioureido)phenyl)ethyl)amine dihydrochloride] | 94.4 | 13.6 | 8.68 | more potent in inhibiting N-cNOS than L-MIN | more selective inhibitory effect on N-cNOS than L-EIN |
| CCSC(=N)Nc1ccc(CCN)cc1.Cl.Cl [Example 104, N-(4-(S-ethylisothioureido)phenylethyl)amine dihydrochloride] | 22.7 | 16.6 | 8.28 | more potent in inhibiting N-cNOS than L-MIN | – |
| CNC(C)c1cccc(NC(=N)SC)c1 (stereo not drawn) [Example 110, N-(1-(3-(S-methylisothioureido)phenyl)ethyl)methylamine dihydrochloride] | – | – | 7.24 | – | – |
